This assay deals with Trichoderma virens ATCC 9645. In words: growth yield (OD600) relative to untreated control; higher = less growth inhibition. Conditions: compound concentration: 100 uM. The essentials:
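A biocide at 200 ng ml^−1 was co-applied to some wells, and library compounds were present in all test wells at 100 μM final. The wells held 100 μl of Trichoderma virens ATCC 9645 spores at 15,000 spores ml^−1 in potato dextrose broth, grown at 30 °C in 96-well plates, with OD600 read at 40 h and 72 h. Results are relative growth against the control without either agent, averaged across duplicate screens.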

Counter-ions that a name gives are not always drawn. ± gives the standard error. The campaign covered roughly 1,300 compounds. About 75 (6%) showed an effect of 50% or more. The list shows a part of the results.

For `NC[C@H]1O[C@H](O[C@H]2[C@H](O)[C@@H](O[C@H]3O[C@H](CO)[C@@H](O)[C@H](N)[C@H]3O)[C@H](N)C[C@@H]2N)[C@H](N)C[C@@H]1O` [Tobramycin], the growth yield runs as follows: (40 h) 105 ± 2.9%; (72 h) 103.4 ± 0.42%.
For `C=CCOc1ccccc1OCC(O)CNC(C)C` (stereo not given) [Oxprenolol hydrochloride] the same measures were 118 ± 5.1% and 111 ± 4.5%.
With `Cc1c(N)c(=O)n(-c2ccccc2)n1C` [Ampyrone], the growth yield amounted to 96.6 ± 1.3% (40 h) and 97.43 ± 0.73% (72 h).
The like results for `CCN(CC)C(=O)C1(c2ccccc2)CC1CN` (stereo not given) [Milnacipran hydrochloride] were, in that order, 93.4 ± 3.5% and 90.5 ± 3.9%.
`Cc1cc(C(C)(C)C)cc(C)c1CC1=NCCN1` [Xylometazoline hydrochloride] came in with a growth yield (40 h) of 102.6 ± 0.95% and a growth yield (72 h) of 104 ± 1.3%.
`CCN(CCCCOC(=O)c1ccc(OC)c(OC)c1)C(C)Cc1ccc(OC)cc1` (stereo not given) [Mebeverine hydrochloride]: the growth yield came to 104.8 ± 0.64% (40 h) and 104 ± 1.1% (72 h).
Take `O=P(O)(O)C(O)(Cn1ccnc1)P(=O)(O)O` [Zoledronic acid hydrate]: the growth yield reads like this: (40 h) 108 ± 4.5%; (72 h) 109 ± 1.6%.
For `CCN(CC)CCOCCOC(=O)C1(c2ccccc2)CCCC1` [Carbetapentane citrate], the growth yield worked out at 95.5 ± 1.4% (40 h) and 97.5 ± 2.5% (72 h).
As to `CCN(CC)C(=O)Nc1ccc(OCC(O)CNC(C)(C)C)c(C(C)=O)c1` (stereo not given) [Celiprolol hydrochloride], the growth yield worked out at 103 ± 6.7% (40 h) and 104 ± 6.4% (72 h).
Take `CCCCC1C(=O)N(c2ccccc2)N(c2ccc(O)cc2)C1=O` (stereo not given) [Oxyphenbutazone]: the growth yield was 117 ± 3.6% (40 h) and 111.8 ± 0.21% (72 h).
Regarding `N[C@H]1CONC1=O` [(S)-(-)-Cycloserine], the growth yield is, setting by setting: (40 h) 104 ± 3.3%; (72 h) 96.8 ± 3%.
With `COc1cc2nc(N3CCN(C(=O)C4COc5ccccc5O4)CC3)nc(N)c2cc1OC` (stereo not given) [Doxazosin mesylate], the growth yield by setting is: (40 h) 97.7 ± 5.2%; (72 h) 103 ± 8.9%.
The like results for `CCCOc1ccccc1-c1nc2[nH]nnc2c(=O)[nH]1` [Zaprinast] were, in that order, 99.1% and 106 ± 1.1%.
For `CCCCCCNC(=O)n1cc(F)c(=O)[nH]c1=O` [Carmofur] the same measures were 16.4 ± 0.48% and 33.1 ± 5.5%.
Turning to `COc1ccc(Cl)cc1C(=O)NCCc1ccc(S(=O)(=O)NC(=O)NC2CCCCC2)cc1` [Glibenclamide], the growth yield reads like this: (40 h) 102 ± 1.9%; (72 h) 111 ± 1.5%.
The like results for `Nc1nc(=O)n([C@@H]2CS[C@H](CO)O2)cc1F` [(-)-Emtricitabine] were, in that order, 102.6 ± 0.32% and 102 ± 1.1%.
For `CC#C[C@]1(O)CC[C@H]2[C@@H]3CCC4=CC(=O)CCC4=C3[C@@H](c3ccc(N(C)C)cc3)C[C@@]21C` [Mifepristone] the same measures were 101 ± 3.6% and 100 ± 4.5%.
The like results for `CC(C(O)c1ccc(O)cc1)N1CCC(Cc2ccccc2)CC1` (stereo not given) [Ifenprodil tartrate] were, in that order, 96.42 ± 0.79% and 95.65 ± 0.63%.
As for `CC(C)[C@H](N)C(=O)OCCOCn1cnc2c(=O)nc(N)[nH]c21` [Valacyclovir hydrochloride], the growth yield runs as follows: (40 h) 102%; (72 h) 103%.
`CN1CCN2c3ncccc3Cc3ccccc3C2C1` (stereo not given) [Mirtazapine]: the growth yield came to 110 ± 1.9% (40 h) and 113.2 ± 0.52% (72 h).
`CN(C(=O)CN(CCO)CC(=O)N(C)C(C)(C)Cc1ccccc1)C(C)(C)Cc1ccccc1` [Oxethazaine]: the growth yield came to 91.8 ± 1.3% (40 h) and 105 ± 1.9% (72 h).
For `COC(=O)N/N=C/c1c[n+]([O-])c2ccccc2[n+]1[O-]` [Carbadox] the same measures were 93.6 ± 1.4% and 94.1 ± 1.1%.
Take `CC1(C)O[C@@H]2C[C@H]3[C@@H]4C[C@H](F)C5=CC(=O)C=C[C@]5(C)[C@@]4(F)[C@@H](O)C[C@]3(C)[C@]2(C(=O)CO)O1` [Fluocinolone acetonide]: the growth yield reads like this: (40 h) 105 ± 2.2%; (72 h) 102 ± 1.1%.
The like results for `COc1cc(NS(=O)(=O)c2ccc(N)cc2)ncn1` [Sulfamonomethoxine] were, in that order, 92.92 ± 0.48% and 97.75 ± 0.42%.
`Cc1cc(C)nc(NS(=O)(=O)c2ccc(N)cc2)n1` [Sulfamethazine sodium salt]: the growth yield reads like this: (40 h) 106 ± 4.5%; (72 h) 101 ± 2.2%.
Consider `NCCc1ccc(O)c(O)c1` [Dopamine hydrochloride], for which the growth yield (40 h) stood at 103 ± 2.4% and the growth yield (72 h) came to 99.8 ± 1.7%.
In the case of `CN(Cc1cc(Br)cc(Br)c1N)C1CCCCC1` [Bromhexine hydrochloride], the growth yield turned out to be 99 ± 1.1% (40 h) and 98.2 ± 1.9% (72 h).
Regarding `C[C@H](CS)C(=O)N1CCC[C@H]1C(=O)O` [Captopril], the growth yield is, setting by setting: (40 h) 104 ± 4.8%; (72 h) 99.2 ± 1.5%.
On to `CC1(C)O[C@@H]2C[C@H]3[C@@H]4C[C@H](F)C5=CC(=O)C=C[C@]5(C)[C@H]4[C@@H](O)C[C@]3(C)[C@]2(C(=O)CO)O1` [Flunisolide], for which the growth yield was determined as 100.5 ± 0.48% (40 h) and 96.5 ± 1.3% (72 h).
In the case of `Cc1c(Nc2ncccc2C(=O)O)cccc1C(F)(F)F` [Flunixin meglumine], the growth yield runs as follows: (40 h) 84.5 ± 2.9%; (72 h) 87.2 ± 3.7%.
The like results for `CC[C@H](c1ccc(O)cc1)[C@@H](CC)c1ccc(O)cc1` [Hexestrol] were, in that order, 68 ± 5.1% and 81.7 ± 3.5%.
Turning to `CC(C)(C)NC(=O)[C@H]1CC[C@H]2[C@@H]3CC[C@H]4NC(=O)C=C[C@]4(C)[C@H]3CC[C@]12C` [Finasteride], the growth yield is, setting by setting: (40 h) 84 ± 5.9%; (72 h) 81.1 ± 2%.
Consider `Nc1nc(N)c2nc(-c3ccccc3)c(N)nc2n1` [Triamterene], for which the growth yield is, setting by setting: (40 h) 99.1 ± 2.5%; (72 h) 98.1 ± 2.8%.
Consider `CCCCOc1ccc(C(=O)CCN2CCCCC2)cc1` [Dyclonine hydrochloride], for which the growth yield (40 h) came to 93.6 ± 3% and the growth yield (72 h) came to 98.7 ± 1.6%.
Compound `Cn1nnc2c(C(N)=O)ncn2c1=O` [Temozolomide] had a growth yield (40 h) of 102 ± 1.1% and a growth yield (72 h) of 102.5 ± 0.94%.
